Reference: PubChem BioAssay AID686978 (National Center for Advancing Translational Sciences (NCATS), 2013)
Where “and” joins values, the source holds several entries; their conditions need not be identical. Equal entries are not always repeated. Out of some 420,000 compounds screened, about 64,000 (15%) were called active. This list was built around the results that the source calls inconclusive (neither active nor inactive); the mix of calls is not that of the screen. Calls come from the whole dose curve; as a rule, active = well fitted inhibition curve with a large enough effect; inconclusive = small, poorly fitted or top-dose-only effect; inactive = flat fitted curve, though single readings scatter. Where the call is inconclusive, the potency comes from a doubtful curve fit.

Assay: qHTS for Inhibitors of human tyrosyl-DNA phosphodiesterase 1 (TDP1): qHTS in cells in absence of CPT; note: nearly all actives have a fitted effect of over 55% in size
Details: DT40 Tdp1-/- hTDP1 cells, no CPT, ATP luminescence, 48 h; series mostly up to 46.2 µM
How it was run: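 Camptothecin absent (DMSO only). Human TDP1-complemented DT40 knockout cells, 400 cells/well, 37 °C for minimum 48 hr; ATP measured via CellTiter-Glo, 30 min dark incubation, luminescence.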
Potency is the fitted concentration of half-maximal effect; tags give direction and shape of the fitted curve.

Row | Structure (SMILES) | Potency
1 | FC(F)(F)c1ccc(N2CCN(c3ncnc4c3nnn4Cc3ccccc3Cl)CC2)cc1 | inconclusive: 20.6 µM [inhibitor, single point]
2 | CCOC(=O)c1c(S(=O)(=O)NCC(=O)Nc2ccccc2OC)c(C)n(C)c1C | inactive
3 | COCCNC(=O)c1cnn2c(C(F)F)cc(-c3ccccc3)nc12 | active: 20.6 µM
4 | CCOc1ccc(NC(=O)c2ccc3c(SCC(=O)O)c4c(nc3c2)CCCC4)cc1 | inactive
5 | COCCNC(=O)C(c1cccs1)N(C(=O)Cn1nnc2ccccc21)c1cccc(C)c1 (stereo not drawn) | inconclusive: 25.9 µM [inhibitor, single point]
6 | Cc1ccc2c(c1)N(C(=O)CCC(=O)NCc1cccc(Br)c1)CC(C)O2 (stereo not drawn) | inconclusive: 9.2 µM [inhibitor, partial curve, poor fit]
7 | O=C(O)c1ccc(CN2C(=O)CSC2=S)cc1 | active: 18.4 µM
8 | COc1cc(/C=C2\SC(=O)N(c3ccc(O)cc3)C2=O)cc(OC)c1OC | inconclusive: 29.1 µM [inhibitor, single point]
9 | O=C(CN1CCN(S(=O)(=O)c2cc(Cl)ccc2Cl)CC1)Nc1cccc(F)c1 | inconclusive: 18.4 µM [inhibitor, single point]
10 | O=C(c1cncc(Br)c1)N1CCN(c2ccc([N+](=O)[O-])cc2)CC1 | inconclusive: 6.51 µM [inhibitor, partial curve]
11 | COCCN(C(=O)COC(=O)c1cc2ccccc2cc1OC)c1c(N)n(Cc2ccccc2)c(=O)[nH]c1=O | inconclusive: 29.1 µM [inhibitor, single point]
12 | COc1ccc(CNC(=O)c2sc(=O)n(Cc3ccc(C)cc3)c2C)cc1 | inconclusive: 29.1 µM [inhibitor, single point]
13 | CC(C)Oc1c(Br)cc(Br)cc1/C=N/NC(N)=S | active: 5.8 µM
14 | CC(C)[C@@H]1Cc2[nH]c(=S)[nH]c(=O)c2[C@H](CCc2ccccc2)O1 | inconclusive: 18.4 µM [inhibitor, single point]
15 | CN(C)S(=O)(=O)N(CC(=O)N(Cc1ccccc1)Cc1ccccc1)c1ccccc1 | inconclusive: 35.5 µM [inhibitor, single point]
16 | COc1ccc2cnnc(SCC(=O)Nc3ccccc3)c2c1OC | inconclusive: 13 µM [inhibitor, partial curve]
17 | COc1ccc(S(=O)(=O)n2cnc3cc(C)c(C)cc32)cc1 | inconclusive: 17.8 µM [inhibitor, partial curve, poor fit]
18 | O=C(CSc1ccccn1)Nc1nc2c(ccc3ccccc32)s1 | inconclusive: 20.6 µM [inhibitor, single point]
19 | CCC1CCCCN1CCCCOc1cccc(Cl)c1 (stereo not drawn) | inconclusive: 16.4 µM [inhibitor, partial curve]
20 | COc1ccc(C2CC(c3cccs3)=NN2C(=O)c2ccc(Br)o2)cc1 (stereo not drawn) | inconclusive: 29.1 µM [inhibitor, single point]
21 | CCOC(=O)C1CCCN(C(=O)c2ccc3c(c2)N(Cc2ccccc2)C(=O)c2ccccc2S3(=O)=O)C1 (stereo not drawn) | inconclusive: 14.6 µM [inhibitor, partial curve]
22 | Cc1ccc(C(=O)Nc2sc3c(c2C(=O)O)CCCC3)o1 | inconclusive: 29.1 µM [inhibitor, single point]
23 | O=C(CSc1nc2ccccc2c(=O)n1NC(=O)c1ccccc1)c1ccc(Cl)cc1 | inconclusive: 16.4 µM [inhibitor, partial curve]

Row | Structure (SMILES) | Potency
24 | Cc1cccnc1NCC(O)COc1ccccc1 (stereo not drawn) | inactive
25 | Fc1ccc(-c2nc(Nc3ccc(F)c(Cl)c3)nc3c2COc2ccccc2-3)cc1 | inconclusive: 29.1 µM [inhibitor, single point]
26 | COc1ccc(C2CC(c3ccc(Cl)cc3)=NN2C(C)=O)cc1 (stereo not drawn) | inconclusive: 9.2 µM [inhibitor, partial curve]
27 | Cc1ccc(-n2ncc(C(=O)N3CCN(c4cccc(C)c4)C(C)C3)c2C2CCN(C(=O)OC(C)(C)C)CC2)cc1 (stereo not drawn) | active: 23.1 µM
28 | C=CCN1C(=O)/C(=C2/Sc3ccc(OC)cc3N2C)SC1=Nc1cccc(O)c1 | inconclusive: 20.6 µM [inhibitor, partial curve, poor fit]
29 | Cc1ncc2c(c1CNS(=O)(=O)N(C)C)CCN(C(=O)/C=C/c1ccccc1F)C2 | inactive
30 | CCOCC(=O)Nc1ccccc1C(=O)N1CCOCC1 | inactive
31 | Cc1[nH]c2ccc(Br)cc2c(=S)c1C/C=C/Cl | inconclusive: 11.6 µM [inhibitor, partial curve]
32 | CC(=O)NC1=NN(C(C)=O)C(C)(c2ccc3ccccc3c2)S1 (stereo not drawn) | inconclusive: 18.4 µM [inhibitor, partial curve]
33 | O=C1CCCc2sc3c(c2N1)CCCCC3 | inconclusive: 29.1 µM [inhibitor, single point]
34 | O=c1[nH]nc(SCc2ccccc2Cl)n1-c1ccc2c(c1)OCCO2 | inconclusive: 11.6 µM [inhibitor, partial curve]
35 | CCOCCCNC(=O)/C(C#N)=C/c1cc(OC)c(O)c([N+](=O)[O-])c1 | active: 2.91 µM
36 | CCN(CC)CCNc1ccc(C)c2sc3ccc(O)cc3c(=O)c12 | active: 0.146 µM
37 | CN(C)Cc1cc(C(C)(C)c2cc(CN(C)C)c(O)c(CN(C)C)c2)cc(CN(C)C)c1O | inactive
38 | CCOC(=O)c1cnc(SC)nc1Oc1cccc(NC(=O)c2ccc(C)cc2)c1 | active: 14.6 µM
39 | Cc1cc(C)cc(C(=O)Nc2ccc(-c3nc4ncccc4o3)cc2)c1 | inconclusive: 20.6 µM [inhibitor, single point]
40 | O=C(NCc1ccc(Cl)cc1)c1cc(S(=O)(=O)N2CCCCC2)c[nH]1 | inconclusive: 18.4 µM [inhibitor, single point] and inconclusive: 23.1 µM [inhibitor, single point]
41 | Cc1c2cnn(CC(=O)N3CCN(c4ccc(F)cc4)CC3)c(=O)c2c(C)n1Cc1ccc(F)cc1 | active: 7.31 µM
42 | COc1ccc2c(CC(=O)N[C@@H](Cc3ccccc3)C(=O)O)cc(=O)oc2c1 | inactive
43 | Cc1nn(CCCC(=O)NCc2ccc(F)cc2)c(=O)c2c1sc1ccccc12 | inactive
44 | CC1=CC(C)(C)N(C(=O)CSc2nnc(N)s2)c2c(C)cc(C)cc21 | inconclusive: 23.1 µM [inhibitor, partial curve]
45 | C/C(=N\NC(=S)NCC(C)(C)C)c1cc(F)cc(F)c1O | active: 14.6 µM
46 | C=CCc1cccc(CNc2c(C)cc(C)cc2C)c1O | inconclusive: 10.3 µM [inhibitor, partial curve, poor fit]

Row | Structure (SMILES) | Potency
47 | COCCCNC(=O)/C=C/[C@H]1O[C@@H](n2cnc3c(NC(=O)c4ccccc4)ncnc32)[C@H](O)[C@@H]1O | inactive
48 | CCCC(=O)Nc1c(C)n[nH]c1C | inconclusive: 25.9 µM [inhibitor, single point]
49 | O=C(NC1CCCCCC1)c1ccccc1-c1ccccc1 | inconclusive: 18.4 µM [inhibitor, single point]
50 | COc1ccccc1CN1C[C@@H]2C[C@@H](c3ccccc3OC)N3CCC[C@@]23C1=O | inconclusive: 13 µM [inhibitor, partial curve, poor fit]
51 | COc1cc2nncc(SC)c2cc1OC | inconclusive: 16.4 µM [inhibitor, partial curve]
52 | COc1cc(/C=N/NC(=O)c2cc(-c3ccccc3)nc3ccccc23)ccc1O | inconclusive: 0.291 µM [inhibitor, full curve]
53 | COc1ccc(NC(=O)CN2C(=O)NC3(CCCC3)C2=O)cc1Cl | inactive
54 | CCCCN(C)C(=O)c1sc(=O)n(Cc2ccccc2F)c1C | inconclusive: 29.1 µM [inhibitor, single point]
55 | CCOC(=O)c1cc(-c2ccccc2)n(-c2cccc(C(=O)Nc3ccc(F)c(F)c3)c2)c1C | inactive
56 | Cc1cccc(NS(=O)(=O)c2ccc3oc(=O)ccc3c2)c1C | inactive
57 | COc1c(C)cc(S(=O)(=O)NCCc2c(C)[nH]c3ccccc23)c(C)c1C | inconclusive: 25.9 µM [inhibitor, single point]
58 | CC1CCN(CCCNC(=O)C2CC(=O)N(CCc3ccccc3)C2)CC1 (stereo not drawn) | inactive
59 | COCCn1c(C)cc(C(=O)CSc2cc(C)c3ccccc3n2)c1C | inconclusive: 20.6 µM [inhibitor, single point]
60 | COc1ccccc1CNc1nc(-c2c(C)noc2C)nc2ccccc12 | inconclusive: 29.1 µM [inhibitor, single point]
61 | Cc1cnc(C2OCCO2)c2cccc(N)c12 | active: 8.2 µM
62 | C=CCn1c(C)cc(-c2csc(NC(=O)CCc3nc4ccccc4c(=O)[nH]3)n2)c1C | inconclusive: 29.1 µM [inhibitor, single point]
63 | Nc1ccc2nn(-c3ccccc3)nc2c1 | inactive
64 | COC(=O)N/N=C\c1cc(Br)ccc1OCc1ccccc1 | inconclusive: 29.1 µM [inhibitor, single point]
65 | Cc1c(NC(=O)c2cc(-c3ccc(Cl)c(Cl)c3)on2)c(=O)n(-c2ccccc2)n1C | inconclusive: 14.6 µM [inhibitor, partial curve] and inconclusive: 25.9 µM [inhibitor, partial curve, poor fit]
66 | COc1ccccc1CNC(=O)CCn1c(=O)c2ccccc2n(CC(=O)Nc2cccc(Cl)c2)c1=O | active: 18.4 µM
67 | CC1(C)CC(Cc2nc(=S)[nH][nH]2)C(=O)O1 (stereo not drawn) | inactive
68 | Cc1cccc(N2CCN(C(=O)c3cc(S(=O)(=O)N4CCOCC4)cn3C)CC2)c1C | inconclusive: 29.1 µM [inhibitor, single point]
